Drawing on article PMC7181608, this text covers binding for two substances.

Sequences of proteins named here, by UniProt entry; tags and fusion partners are left off.
UniProt P12956: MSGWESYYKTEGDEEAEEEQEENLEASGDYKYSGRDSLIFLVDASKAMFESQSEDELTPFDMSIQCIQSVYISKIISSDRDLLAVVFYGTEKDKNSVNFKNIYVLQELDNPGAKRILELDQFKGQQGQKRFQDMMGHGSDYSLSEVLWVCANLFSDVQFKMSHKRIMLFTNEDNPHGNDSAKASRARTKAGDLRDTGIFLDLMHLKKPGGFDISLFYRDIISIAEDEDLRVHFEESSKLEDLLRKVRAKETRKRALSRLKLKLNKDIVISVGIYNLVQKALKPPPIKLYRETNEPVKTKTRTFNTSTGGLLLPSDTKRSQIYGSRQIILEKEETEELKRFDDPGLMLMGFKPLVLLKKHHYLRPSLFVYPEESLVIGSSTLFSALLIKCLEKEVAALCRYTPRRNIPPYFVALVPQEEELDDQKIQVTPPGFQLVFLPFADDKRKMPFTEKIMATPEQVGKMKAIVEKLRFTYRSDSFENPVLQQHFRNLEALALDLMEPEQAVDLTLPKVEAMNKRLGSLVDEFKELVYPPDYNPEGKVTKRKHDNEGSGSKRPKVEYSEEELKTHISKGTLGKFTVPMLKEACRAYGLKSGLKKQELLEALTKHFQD
UniProt P13010: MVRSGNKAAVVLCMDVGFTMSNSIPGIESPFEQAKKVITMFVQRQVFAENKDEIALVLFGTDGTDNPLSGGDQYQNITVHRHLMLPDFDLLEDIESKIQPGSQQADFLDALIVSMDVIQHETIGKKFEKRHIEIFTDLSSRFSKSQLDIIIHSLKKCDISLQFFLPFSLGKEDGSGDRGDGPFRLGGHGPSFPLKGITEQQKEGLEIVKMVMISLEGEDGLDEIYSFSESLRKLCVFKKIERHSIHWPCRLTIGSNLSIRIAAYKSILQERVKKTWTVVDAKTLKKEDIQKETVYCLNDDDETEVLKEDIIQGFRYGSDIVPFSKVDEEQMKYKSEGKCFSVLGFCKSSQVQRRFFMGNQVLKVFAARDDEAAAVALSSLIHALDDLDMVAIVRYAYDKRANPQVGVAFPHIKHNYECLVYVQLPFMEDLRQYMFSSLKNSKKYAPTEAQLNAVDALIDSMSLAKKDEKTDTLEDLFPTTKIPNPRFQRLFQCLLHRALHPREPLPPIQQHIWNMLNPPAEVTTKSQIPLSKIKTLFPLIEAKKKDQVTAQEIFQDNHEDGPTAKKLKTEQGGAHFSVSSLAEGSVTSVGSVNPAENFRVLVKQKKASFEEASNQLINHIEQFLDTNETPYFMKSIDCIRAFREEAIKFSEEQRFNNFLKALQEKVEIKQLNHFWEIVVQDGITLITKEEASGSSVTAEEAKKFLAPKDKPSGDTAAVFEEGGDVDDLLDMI

In assay [1] the target is T1, Myc-tagged FOXL2 F167X (human) (UniProt P58012).
T1 sequence: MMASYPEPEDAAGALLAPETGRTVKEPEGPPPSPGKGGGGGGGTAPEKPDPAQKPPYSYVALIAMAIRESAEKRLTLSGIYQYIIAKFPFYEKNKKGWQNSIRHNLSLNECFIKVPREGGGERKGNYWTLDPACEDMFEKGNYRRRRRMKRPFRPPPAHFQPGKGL
Kind of assay: co-IP; 293T cells transfected with Myc-tagged FOXL2 forms (with Flag-XRCC5 or XRCC6 fragments where indicated); IP with anti-Myc, immunoblot. (In general: A western blot detects proteins with antibodies after separation by electrophoresis.)

Assay [2] deals with T2, Myc-tagged FOXL2 N109K (human) (UniProt P58012).
T2 sequence: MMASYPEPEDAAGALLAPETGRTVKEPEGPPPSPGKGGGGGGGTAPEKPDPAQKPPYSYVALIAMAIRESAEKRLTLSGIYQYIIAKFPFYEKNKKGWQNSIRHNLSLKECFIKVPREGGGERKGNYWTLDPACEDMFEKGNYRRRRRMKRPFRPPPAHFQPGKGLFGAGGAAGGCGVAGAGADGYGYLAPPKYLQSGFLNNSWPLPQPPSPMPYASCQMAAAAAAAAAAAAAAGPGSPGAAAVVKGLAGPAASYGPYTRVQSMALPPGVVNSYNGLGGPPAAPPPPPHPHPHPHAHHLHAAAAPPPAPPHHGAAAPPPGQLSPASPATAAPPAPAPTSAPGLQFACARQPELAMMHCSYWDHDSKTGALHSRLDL
Described as above.

Assay [3] deals with T3, Myc-tagged FOXL2 Q53X (human) (UniProt P58012).
T3 sequence: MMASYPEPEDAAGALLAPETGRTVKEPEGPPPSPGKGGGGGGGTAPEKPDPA
The description is as above.

The target of assay [4] is T4, Myc-tagged FOXL2 C134W (human) (UniProt P58012).
T4 sequence: T2 sequence with K109N, C134W
The assay is described as above.

Assay [5] concerns the target T5, Myc-tagged FOXL2 N105S (human) (UniProt P58012).
T5 sequence: T2 sequence with N105S, K109N
Described as above.

Assay [6] deals with T6, Myc-tagged full-length wild-type (WT) FOXL2 (human) (UniProt P58012).
T6 sequence: T2 sequence with K109N
The description is as above.

Assay [7] concerns the target T7, Forkhead box protein L2 (FOXL2), endogenous (human (endogenous in KGN)) (UniProt P58012).
T7 sequence: T2 sequence with K109N
The experiment in a line: co-IP; endogenous proteins in KGN lysate; IP with anti-FOXL2, anti-XRCC5 or anti-XRCC6 on Dynabeads protein G, immunoblot; also after UV, H2O2, etoposide, MMS, TSA or nicotinamide, SIRT1 overexpression or knock-down, cell-cycle synchronisation.

The target of assay [8] is T6, Myc-tagged full-length wild-type (WT) FOXL2 (human). Kind of assay: co-IP; FOXL2 overexpressed in 293T cells (Supplementary Fig. 2a); constructs and antibodies not given.
Assay [9] has as its target T7, Forkhead box protein L2 (FOXL2), endogenous (human (endogenous in KGN)). The experiment in a line: co-IP; endogenous proteins in various non-tumour cell lines (Supplementary Fig. 2b-d).

Where a chain is given by its changes, count along the chain named. No constants are given. Whether binding was seen depends on the method and setting. In cells and extracts the contact can be indirect. Some entries that bind do so weakly or less than the wild type. For some of these results: Where a sequence is shown, tags or fusion partners need not be part of it.

For the substance “XRCC6 (Ku70), endogenous (from UniProt P12956 1-609)”, the binding result in assay [1] is on record as “binds”; in assay [2], “binds”; in assay [3] it was “no binding”; in [4], “binds”; in [5] it was “binds”; in assay [6], “binds”. Moreover, the binding result in assay [7] is listed as “binds”.

For the substance “XRCC5 (Ku80), endogenous (from UniProt P13010 1-732)”, the binding result in assay [1] is on record as “binds”; in assay [2], “binds”; in assay [3] it was “no binding”; in assay [4], “binds”; in assay [5], “binds”; in [6] it was “binds”. Further, the binding result in [8], in [7] and in assay [9] was “binds” each time.
